Data taken from article PMC12646233 (Proceedings of the National Academy of Sciences of the …, 2025).
Values joined by “and” are separate entries in the source; they are usually repeats but may differ in a detail not shown here. Identical values can stand only once.

Molecular target: the molecule itself
Test: SEC + native gel or EMSA; Superdex 200 Increase 10/300 GL fractionation of purified liver polymers; fractions assessed by nondenaturing PAGE

B1: Z α1-antitrypsin (Glu342Lys) polymers isolated from human explant liver tissue (natural protein)
chain: not shown
modifications: glycosylation site at Asn83
notes: alpha-1-antitrypsin, human, Z variant (Glu342Lys, rs28929474), as polymer chains of heterogeneous length; Polymers of varying length; also called ZZ; Z α1-antitrypsin liver polymers; source: purified from explant liver tissue of a PiZZ individual (inclusion bodies, sonication, copper IMAC, anion exchange, SEC)
For B1, the “stoichiometry N” value was 3 subunits to 6 subunits (2×) and 2 and 3.
